Experimental findings from patent US20260242448A1 (INSTITUTE OF MICROBIOLOGY CHINESE ACADEMY OF SCIENCES, published 2026) are described below.

Experiment [1] concerns the target T1, S protein of the SARS-CoV-2 prototype strain on pseudo-virus (SARS-CoV-2 prototype strain). Kind of experiment: cell-based or functional assay.
Experiment [2] has as its target T1, S protein of the SARS-CoV-2 prototype …. Kind of experiment: cell-based or functional assay. The source holds these as a separate data set.

B1: bispecific antibody protein DIA-19 (bispecific antibody)
chain: QITLKESGPTLVKPTQTLTLTCTFSGFSLSTSGVGVAWIRQPPGKALEWLALIYWDNDKRSSPSLNNRLTITKDTSKNQVVLTMTNMDPEDTATYYCAHFFSHYDSSNYYYGSWFDPWGQGTLVTVSSGGGGSGGGGS[letters of about 100 residues omitted]FTFGPGTKVDIKGGGGSGGGGSGGGGSGGGGSGGGGSEVQLVESGGGVVQPGGSLRLSCAVSGFTFDDYAMHWVRQAPGKGLDWVSLISGDGSYTYYADSVKGRFTISRDSSKNSLYLQMNSLRTEDTALYYCAKAQTPTLWWLQDAFDIWGQGTMVTVSSGGGGSGGGGSEIVLTQSPGTLSLSPGERATLSCRASQSFDSRYLGWYQQKSGQAPRLLIYGASSRATGIPDRFSGSGSGTDFTLTISRLEPEDFAVYYCQQFGDSPFTFGQGTKLEIKGGGGS[letters of human IgG1 Fc with changes omitted]
As for B1, the “Neutralization Effects (IC50) against SARS-CoV-2 pseudo-viruses” value in experiment [1] is 0.849 ng/mL. In experiment [2], the “Neutralization activity (IC50) against pseudo-virus” value is 0.734 ng/mL.
